# Laboratory results taken from the supplement of paper PMC8728848.
# Some of the results follow.
# How the values were obtained:
# Test in all cases: glycan array binding signal (z-score within array); higher = stronger binding
# Details in all cases: glycan notation: IUPAC condensed, linker removed
# [1] = target: Gal(b1-3)GlcNAc(b1-3)Gal(b1-4)GlcNAc
# Summary of the method: (§1)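 From the Consortium for Functional Glycomics database, 3228 arrays were curated, keeping only those whose protein sequence was available. Binding is given as a within-array Z-score averaged across arrays sharing a protein sequence and across linkers. Negative Z-scores can be read as non-binding.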
# [2] = target: Gal(b1-3)GlcNAc(b1-3)Gal(b1-4)GlcNAc(b1-2)Man(a1-3)[Gal(b1-3)GlcNAc(b1-3)Gal(b1-4)GlcNAc(b1-2)Man(a1-6)]Man(b1-4)GlcNAc(b1-4)GlcNAc
# Summary of the method: as §1
# [3] = target: Gal(b1-3)GlcNAc(b1-3)Gal(b1-4)GlcNAc(b1-2)[Gal(b1-3)GlcNAc(b1-3)Gal(b1-4)GlcNAc(b1-6)]Man(a1-6)[Gal(b1-3)GlcNAc(b1-3)Gal(b1-4)GlcNAc(b1-2)Man(a1-3)]Man(b1-4)GlcNAc(b1-4)[Fuc(a1-6)]GlcNAc
# Summary of the method: as §1
# [4] = target: Gal(b1-3)GlcNAc(b1-3)Gal(b1-4)GlcNAc(b1-3)Gal(b1-4)GlcNAc(b1-2)[Gal(b1-3)GlcNAc(b1-3)Gal(b1-4)GlcNAc(b1-3)Gal(b1-4)GlcNAc(b1-6)]Man(a1-6)[Gal(b1-3)GlcNAc(b1-3)Gal(b1-4)GlcNAc(b1-3)Gal(b1-4)GlcNAc(b1-2)Man(a1-3)]Man(b1-4)GlcNAc(b1-4)[Fuc(a1-6)]GlcNAc
# Summary of the method: as §1
# [5] = target: Gal(b1-3)GlcNAc(b1-3)Gal(b1-4)GlcNAc(b1-6)[Gal(b1-3)GlcNAc(b1-3)]Gal(b1-4)Glc
# Summary of the method: as §1
# [6] = target: Gal(b1-3)GlcNAc(b1-3)Gal(b1-4)[Fuc(a1-3)]GlcNAc
# Summary of the method: as §1
# [7] = target: Gal(b1-3)GlcNAc(b1-3)Gal(b1-4)[Fuc(a1-3)]GlcNAc(b1-6)[Gal(b1-3)GlcNAc(b1-3)]Gal(b1-4)Glc
# Summary of the method: as §1
# [8] = target: Gal(b1-3)GlcNAc(b1-3)GalNAc
# Summary of the method: as §1
# [9] = target: Gal(b1-3)GlcNAc(b1-6)Gal(b1-4)GlcNAc
# Summary of the method: as §1
# [10] = target: Gal(b1-3)GlcNAc(b1-6)GalNAc
# Summary of the method: as §1
# [11] = target: Gal(b1-3)GlcNAc(b1-6)[Gal(b1-3)]GalNAc
# Summary of the method: as §1
# [12] = target: Gal(b1-3)GlcNAc6S
# Summary of the method: as §1
# [13] = target: Gal(b1-3)[Fuc(a1-4)]GlcNAc
# Summary of the method: as §1
# [14] = target: Gal(b1-3)[Fuc(a1-4)]GlcNAc(b1-2)Man
# Summary of the method: as §1
# [15] = target: Gal(b1-3)[Fuc(a1-4)]GlcNAc(b1-2)Man(a1-3)[Gal(b1-3)[Fuc(a1-4)]GlcNAc(b1-2)Man(a1-6)]Man(b1-4)GlcNAc(b1-4)[Fuc(a1-6)]GlcNAc
# Summary of the method: as §1
# [16] = target: Gal(b1-3)[Fuc(a1-4)]GlcNAc(b1-3)Gal(b1-3)[Fuc(a1-4)]GlcNAc
# Summary of the method: as §1
# [17] = target: Gal(b1-3)[Fuc(a1-4)]GlcNAc(b1-3)Gal(b1-4)GlcNAc
# Summary of the method: as §1
# [18] = target: Gal(b1-3)[Fuc(a1-4)]GlcNAc(b1-3)Gal(b1-4)[Fuc(a1-3)]GlcNAc
# Summary of the method: as §1
# [19] = target: Gal(b1-3)[Fuc(a1-4)]GlcNAc(b1-6)GalNAc
# Summary of the method: as §1
# [20] = target: Gal(b1-3)[GlcNAc(b1-6)]GalNAc
# Summary of the method: as §1
# [21] = target: Gal(b1-3)[GlcNAc(b1-6)]GlcNAc
# Summary of the method: as §1
# [22] = target: Gal(b1-3)[Neu5Ac(a2-6)]GalNAc
# Summary of the method: as §1
# [23] = target: Gal(b1-3)[Neu5Ac(a2-6)]GlcNAc
# Summary of the method: as §1
# [24] = target: Gal(b1-3)[Neu5Ac(a2-6)]GlcNAc(a1-4)Gal(b1-4)Glc
# Summary of the method: as §1
# [25] = target: Gal(b1-3)[Neu5Ac(a2-6)]GlcNAc(b1-4)Gal(b1-4)Glc
# Summary of the method: as §1
# [26] = target: Gal(b1-3)[Neu5Ac(a2-6)]GlcNAc(b1-6)Gal(b1-4)Glc
# Summary of the method: as §1
# [27] = target: Gal(b1-3)[Neu5Ac(b2-6)]GalNAc
# Summary of the method: as §1
# [28] = target: Gal(b1-3)[Neu5Ac(b2-6)]GlcNAc
# Summary of the method: as §1
# [29] = target: Gal(b1-4)Gal
# Summary of the method: as §1
# [30] = target: Gal(b1-4)GalNAc(a1-3)[Fuc(a1-2)]Gal(b1-4)GlcNAc
# Summary of the method: as §1
# [31] = target: Gal(b1-4)GalNAc(b1-3)[Fuc(a1-2)]Gal(b1-4)GlcNAc
# Summary of the method: as §1
# [32] = target: Gal(b1-4)Glc
# Summary of the method: as §1
# [33] = target: Gal(b1-4)Glc6S
# Summary of the method: as §1
# [34] = target: Gal(b1-4)GlcNAc
# Summary of the method: as §1
# [35] = target: Gal(b1-4)GlcNAc(a1-6)Gal(b1-4)GlcNAc
# Summary of the method: as §1
# [36] = target: Gal(b1-4)GlcNAc(b1-2)Man
# Summary of the method: as §1
# [37] = target: Gal(b1-4)GlcNAc(b1-2)Man(a1-3)Man(b1-4)GlcNAc(b1-4)GlcNAc
# Summary of the method: as §1
# [38] = target: Gal(b1-4)GlcNAc(b1-2)Man(a1-3)[Gal(b1-4)GlcNAc(b1-2)Man(a1-6)]Man(b1-4)GlcNAc(b1-4)GlcNAc
# Summary of the method: as §1
binder,measurement,setting,value
"UEA-I (Ulex europaeus), P22972 (protein) SDDLSFKFKNFSQNGKDLSFQGDASVIETGVLQLNKVGNNLPDETGGIARYIAPIHIWNCNTGEVASFITSFSFFMETSANPKAATDGLTFFLAPPDSPLRRAGGYFGLFEDTKDNDSSYQTVAVEFDTIGSPVNFDDPGFPHIGIDVNRVKSINAERWNKRYGLNNVANVEIIYEASSKTLTASLTYPSDQTSISVTSIVDLKEILPEWVSVGFSGGTYIGRQATHEVLNWYFTSNLINTNS",glycan array binding signal (z-score),[1],-0.198
same,glycan array binding signal (z-score),[2],-0.086
same,glycan array binding signal (z-score),[3],-0.109
same,glycan array binding signal (z-score),[4],-0.064
same,glycan array binding signal (z-score),[5],-0.158
same,glycan array binding signal (z-score),[6],-0.174
same,glycan array binding signal (z-score),[7],-0.187
same,glycan array binding signal (z-score),[8],-0.18
same,glycan array binding signal (z-score),[9],-0.253
same,glycan array binding signal (z-score),[10],-0.219
same,glycan array binding signal (z-score),[11],-0.177
same,glycan array binding signal (z-score),[12],-0.29
same,glycan array binding signal (z-score),[13],-0.183
same,glycan array binding signal (z-score),[14],-0.099
same,glycan array binding signal (z-score),[15],-0.002
same,glycan array binding signal (z-score),[16],-0.151
same,glycan array binding signal (z-score),[17],-0.113
same,glycan array binding signal (z-score),[18],-0.199
same,glycan array binding signal (z-score),[19],-0.098
same,glycan array binding signal (z-score),[20],-0.023
same,glycan array binding signal (z-score),[21],-0.576
same,glycan array binding signal (z-score),[22],-0.192
same,glycan array binding signal (z-score),[23],-0.562
same,glycan array binding signal (z-score),[24],-0.409
same,glycan array binding signal (z-score),[25],-0.234
same,glycan array binding signal (z-score),[26],-0.24
same,glycan array binding signal (z-score),[27],-0.228
same,glycan array binding signal (z-score),[28],-0.41
same,glycan array binding signal (z-score),[29],-0.218
same,glycan array binding signal (z-score),[30],-0.22
same,glycan array binding signal (z-score),[31],-0.23
same,glycan array binding signal (z-score),[32],-0.147
same,glycan array binding signal (z-score),[33],-0.199
same,glycan array binding signal (z-score),[34],-0.196
same,glycan array binding signal (z-score),[35],-0.182
same,glycan array binding signal (z-score),[36],-0.23
same,glycan array binding signal (z-score),[37],-0.074
same,glycan array binding signal (z-score),[38],-0.309
